Here are results for 42 molecules from ChEMBL document CHEMBL4888484, “Replenishing the malaria drug discovery pipeline: Screening and hit evaluation of the MMV Hit Generation Library 1 (HGL1) against asexual blood stage Plasmodium falciparum ,using a nano luciferase reporter read-out” (2022).

Structures are written as SMILES. Hit rate of the full screen: of about 150,000 compounds, about 540 (0.36%) showed an effect of 50% or more. This is one part of the list.

For the test, the system named is Plasmodium falciparum. The test can be described thus: Primary screen in NF54 nanoGlo assay, in single point, at 2uM, 72h; a lower Z score goes with more inhibition. In kind it is functional, Erythrocyte. Particulars: timepoint 72 hour.
The term % Inhibition denotes the drop in the measured response relative to a control, in per cent. With `O=C(NC1CC1)[C@H]1CCCN(C2CCN(Cc3c(F)cccc3F)CC2)C1`, the “% Inhibition” value is -7% and the Z score came out at 1.24.
On the same counts, the results for `COc1cccc(NC(=O)c2[nH]c3cc(C)sc3c2CN2CCOCC2)c1` are -1% and 0.08.
`Cc1nn(C)c(C)c1CNC(=O)Cn1ccc2c(C)cccc21`: the “% Inhibition” value is reported as -2% and the Z score came to 0.24.
Turning to `Cc1nn2cnnc2c(C)c1CCC(=O)NCC1CC2C=CC1C2` (centres undefined), the “% Inhibition” value is -18% and the Z score amounted to 2.23.
Regarding `Cc1cccc(NC(=O)N2C3CCC2CC(N2C(=O)CCC2=O)C3)c1` (centres undefined), the “% Inhibition” value is listed as -5% and the Z score stood at 0.84.
On to `CCn1c(CN2CCC[C@H](C(=O)c3cccc(OC)c3)C2)nc2ccccc21`, for which the “% Inhibition” value is listed as -5% and the Z score is 0.65.
As for `COCCN1CCCC1CNC(=O)NC1C=CCCC1` (centres undefined), the “% Inhibition” value is -5% and the Z score was found to be 0.64.
As to `CCN(CC)C[C@H](O)COc1ccc(CN(C)CC(=O)OC)cc1OC`, the “% Inhibition” value is -22% and the Z score is 1.96.
With `Cc1ccccc1-n1c(=O)c2sccc2n(CC(=O)NCc2ccc(Cl)cc2)c1=O`, the “% Inhibition” value is recorded as 4% and the Z score is recorded as -0.63.
For the molecule `Cc1ccc(NC(=O)c2cn(C3CCCCC3)c(=O)c3nnsc23)cc1`, the “% Inhibition” value is recorded as 0% and the Z score is listed as 0.05.
With `CCCN1C(=O)C2(CCCCC2)NC12CCN(S(C)(=O)=O)CC2`, the “% Inhibition” value stood at 8% and the Z score was -0.84.
Consider `Cc1n[nH]cc1-c1nccnc1N1CCCC1`, for which the “% Inhibition” value was -9% and the Z score turned out to be 1.22.
As for `CCCCNC(=O)N(Cc1c(C)nn(-c2cccc(F)c2)c1N1CCN(CC)CC1)[C@@H](C)CC`, the “% Inhibition” value is 11% and the Z score is recorded as -1.39.
In the case of `Cn1ncnc1COc1ccc(S(=O)(=O)NCc2ccoc2)cc1`, the “% Inhibition” value is on record as -6% and the Z score is reported as 0.81.
Take `COCCn1cc(CCNC(=O)Nc2cc(C)cc(C)c2)c2cccnc21`: the “% Inhibition” value is listed as -2% and the Z score stood at 0.21.
On to `O=C(NCCCn1cccn1)c1cn(C[C@H](O)c2ccccc2F)nn1`, for which the “% Inhibition” value is given as -8% and the Z score worked out at 1.46.
For `CC[C@@](NC(=O)c1ccon1)(C(N)=O)C(C)C`, the “% Inhibition” value was 3% and the Z score is recorded as -0.29.
As to `Cc1nc(N2CC[C@]3(CCN(Cc4ccccc4)C3)C2)cc2nncn12`, the “% Inhibition” value is reported as 21% and the Z score was -2.67.
For the molecule `Cc1cc(Cn2ccc(C(C)(C)C)n2)no1`, the “% Inhibition” value is given as -7% and the Z score amounted to 0.79.
On the same counts, the results for `c1ccc(C(NCc2cnc(-c3ccco3)s2)C2CCCO2)cc1` (centres undefined) are -16% and 1.34.
Consider `CCC(CC)(C(=O)N[C@H]1CC[C@@H](CO)CC1)C(=O)OC(C)(C)C`, for which the “% Inhibition” value is reported as -2% and the Z score is reported as 0.35.
For the molecule `Clc1ccc(CN(Cc2cccnc2)Cc2ccccn2)cc1Cl`, the “% Inhibition” value is listed as -3% and the Z score is given as 0.36.
Take `CNS(=O)(=O)c1ccc([C@@H]2C[C@H](NC(C)=O)C[C@H](CC(C)C)O2)cc1`: the “% Inhibition” value is on record as -1% and the Z score came out at 0.16.
On the same counts, the results for `C=CCN=C(NCCc1nccn1C(F)F)NCc1ccco1` are 0% and -0.03.
For the molecule `NS(=O)(=O)Cc1cccc(F)c1F`, the “% Inhibition” value is -17% and the Z score was determined as 2.49.
On the same counts, the results for `CCc1cnc(NCC(C)(C)N2CCCCC2)nc1` are 11% and -1.58.
Consider `CC(C)c1nc(CN(C)c2nc(N)nc3c2CCNCC3)cs1`, for which the “% Inhibition” value stood at 1% and the Z score is reported as -0.22.
For the molecule `O=C(NCc1ccccc1Cl)c1c[nH]c(=O)n(Cc2ccccc2F)c1=O`, the “% Inhibition” value is reported as -3% and the Z score is listed as 0.5.
Take `O=C(COc1ccc(-c2ccccc2)cc1)NCc1cccs1`: the “% Inhibition” value is listed as -9% and the Z score was found to be 0.95.
For `COc1c[nH]c(C(=O)Nc2ccc(-c3nc[nH]n3)cc2)cc1=O`, the “% Inhibition” value is listed as -7% and the Z score worked out at 0.9.
Consider `COc1cc(Cl)ccc1-c1nnc(N2CC[C@H](OC)C2)n1C`, for which the “% Inhibition” value is recorded as -5% and the Z score is 0.76.
Take `C[C@H](NC(N)=O)c1noc(Cc2ccc3c(c2)CCCO3)n1`: the “% Inhibition” value is given as -9% and the Z score was determined as 1.65.
On the same counts, the results for `CC1(C)C[S+]([O-])CCN1C(=O)CC1CCCCO1` (centres undefined) are -8% and 0.89.
On to `CCc1nnc(CC2CCN(C(=O)c3ccc4ccccc4n3)CC2)[nH]1`, for which the “% Inhibition” value was -12% and the Z score is reported as 1.76.
Turning to `CCC1CCC(CNC(=O)NC2C3CCOC3C2(C)C)CC1` (centres undefined), the “% Inhibition” value was -2% and the Z score turned out to be 0.17.
On the same counts, the results for `C[C@H]1CCc2c(c(-c3cccnc3)nc3c(-c4ccc(Cl)cc4)cnn23)C1` are 4% and -0.42.
On the same counts, the results for `Cc1cc(C)c2sc(N3CCN(C(=O)c4cnc5ccccc5n4)CC3)nc2c1` are -4% and 0.72.
Consider `O=S(=O)(NCc1cccs1)c1ccc(-c2cc(C(F)(F)F)n[nH]2)s1`, for which the “% Inhibition” value is reported as -6% and the Z score is reported as 1.13.
Take `CC1(C)CC(NC(=O)N2CCCCC2c2cc[nH]n2)c2ccccc2O1` (centres undefined): the “% Inhibition” value is listed as -3% and the Z score stood at 0.56.
On the same counts, the results for `Cc1nsc(N2CCC(C(F)(F)F)CC2)n1` are -4% and 0.7.
Consider `O=C1NC2(CCC2)C(=O)N1CCn1cc(Br)cn1`, for which the “% Inhibition” value is -4% and the Z score turned out to be 0.52.
With `Cn1cc(-c2ccc(NC3CCCC3)nn2)cn1`, the “% Inhibition” value is listed as -21% and the Z score is 1.96.
